# Reference: article PMC11995724, “Antibiotic target discovery by integrated phenotypic and activity-based profiling of electrophilic fragments” (Cell chemical biology, 2025)
# In all, about 3,200 compounds went through this assay and about 110 (3.4%) showed an effect of 50% or more. Some of the results follow.
# Test system: T1, V. cholerae SAD30
# T1 construct: SAD30
# Parameters: species or system S. aureus MSSA476 (TSB) or V. cholerae SAD30 (LB); 384-well bacterial growth screen at 25 uM, OD600 relative to DMSO control
# Conditions: relative growth, OD600, LB; 25 µM; inhibitor
row,SMILES,% of control remaining
1,"CC1CCN(C(=O)CCl)c2cc(C(F)(F)F)ccc2S1 (stereo not shown) [5-J07, 2-chloro-1-[2-methyl-7-(trifluoromethyl)-2,3,4,5-tetrahydro-1,5-benzothiazepin-5-yl]ethan-1-one]",87.7587%
2,"C=CC(=O)NCCC(=O)NC1CCSc2ccc(F)cc21 (stereo not shown) [3-D08, N-{2-[(6-fluoro-3,4-dihydro-2H-1-benzothiopyran-4-yl)carbamoyl]ethyl}prop-2-enamide]",104.44%
3,"C=CC(=O)NC1(Cn2cccn2)CC(F)(F)C1 [2-J17, N-{3,3-difluoro-1-[(1H-pyrazol-1-yl)methyl]cyclobutyl}prop-2-enamide]",91.5854%
4,"N#CC(=Cc1cc2ccccc2o1)C(=O)NCc1ccco1 [9-O08, 3-(1-benzofuran-2-yl)-2-cyano-N-[(furan-2-yl)methyl]prop-2-enamide]",80.4215%
5,"O=C(CCl)NC1CCCOc2c(F)cccc21 (stereo not shown) [7-B14, 2-chloro-N-(9-fluoro-2,3,4,5-tetrahydro-1-benzoxepin-5-yl)acetamide]",79.696%
6,"O=C(CCl)c1sccc1Cl [10-K11, 2-chloro-1-(3-chlorothiophen-2-yl)ethan-1-one]",0%
7,"C=CC(=O)NC1CCCN(C(=O)CCC(F)(F)F)C1 (stereo not shown) [1-B03, N-[1-(4,4,4-trifluorobutanoyl)piperidin-3-yl]prop-2-enamide]",100.897%
8,"COc1ccc(C=C(C#N)C(=O)Nc2cccc3c2C(=O)NC3=O)cc1 [8-F13, 2-cyano-N-(1,3-dioxo-2,3-dihydro-1H-isoindol-4-yl)-3-(4-methoxyphenyl)prop-2-enamide]",77.1584%
9,"CC(Cl)C(=O)NCCN1C(=O)CSC1=O (stereo not shown) [5-M03, 2-chloro-N-[2-(2,4-dioxo-1,3-thiazolidin-3-yl)ethyl]propanamide]",110.623%
10,"C=CC(=O)Nc1ccc2c(c1)N(C)CC2 [1-G13, N-(1-methyl-2,3-dihydro-1H-indol-6-yl)prop-2-enamide]",88.6398%
11,"C=CC(=O)NCC1CCCN1S(=O)(=O)CC (stereo not shown) [3-F19, N-{[1-(ethanesulfonyl)pyrrolidin-2-yl]methyl}prop-2-enamide]",88.9138%
12,"CC(Cl)C(=O)N1CCC(c2nc(N(C)C)no2)CC1 (stereo not shown) [6-F05, 2-chloro-1-{4-[3-(dimethylamino)-1,2,4-oxadiazol-5-yl]piperidin-1-yl}propan-1-one]",90.7005%
13,"Cc1c(Cl)cccc1NC(=O)C(C#N)=Cc1cccs1 [9-B05, N-(3-chloro-2-methylphenyl)-2-cyano-3-(thiophen-2-yl)prop-2-enamide]",81.7811%
14,"CC(Cl)C(=O)NCCc1ccnn1C (stereo not shown) [7-I21, 2-chloro-N-[2-(1-methyl-1H-pyrazol-5-yl)ethyl]propanamide]",82.6037%
15,"Cc1cc(C)c(C=C(C#N)C(=O)Nc2nccs2)cc1C [8-P21, 2-cyano-N-(1,3-thiazol-2-yl)-3-(2,4,5-trimethylphenyl)prop-2-enamide]",89.5309%
16,"CC(c1cccc([N+](=O)[O-])c1)N(C)C(=O)CCl (stereo not shown) [6-G06, 2-chloro-N-methyl-N-[1-(3-nitrophenyl)ethyl]acetamide]",96.6158%
17,"C=CC(=O)Nc1nc(-c2cccs2)cs1 [1-D08, N-[4-(thiophen-2-yl)-1,3-thiazol-2-yl]prop-2-enamide]",74.5829%
18,"CC(Cl)C(=O)NCCC1=CCCCC1 (stereo not shown) [6-E11, 2-chloro-N-[2-(cyclohex-1-en-1-yl)ethyl]propanamide]",84.7853%
19,"N#CC(=Cc1ccc(F)cc1)C(=O)Nc1ccccc1C(F)(F)F [8-I18, 2-cyano-3-(4-fluorophenyl)-N-[2-(trifluoromethyl)phenyl]prop-2-enamide]",71.8559%
20,"O=C(CCl)NCC1(c2ccc3c(c2)OCCO3)CCCC1 [4-I11, 2-chloro-N-{[1-(2,3-dihydro-1,4-benzodioxin-6-yl)cyclopentyl]methyl}acetamide]",93.5087%
21,"C=CC(=O)NCc1ccsc1S(N)(=O)=O [2-J15, N-[(2-sulfamoylthiophen-3-yl)methyl]prop-2-enamide]",79.5426%
22,"CC(Cl)C(=O)N[C@H]1C[C@H](C)S(=O)(=O)c2sccc21 (stereo partly drawn) [6-B22, 2-chloro-N-[(2S,4S)-2-methyl-1,1-dioxo-2H,3H,4H-1lambda6-thieno[2,3-b]thiopyran-4-yl]propanamide]",103.289%
23,"Cc1ccc(C(=O)c2ccccc2)c(NC(=O)CCl)c1 [4-B19, N-(2-benzoyl-5-methylphenyl)-2-chloroacetamide]",97.1318%

row,SMILES,% of control remaining
1,"N#CC(=Cc1ccsc1)C(=O)Nc1cccc2ccccc12 [9-M09, 2-cyano-N-(naphthalen-1-yl)-3-(thiophen-3-yl)prop-2-enamide]",88.4432%
2,"C=CC(=O)Nc1ccccc1C1CC1(F)F (stereo not shown) [1-M15, N-[2-(2,2-difluorocyclopropyl)phenyl]prop-2-enamide]",84.006%
3,"COc1ccc(NC(=O)CCl)cc1S(=O)(=O)N(C)C [4-E15, 2-chloro-N-[3-(dimethylsulfamoyl)-4-methoxyphenyl]acetamide]",96.4417%
4,"N#CC(=Cc1ccc(OC(F)F)cc1)C(=O)Nc1nccs1 [8-F14, 2-cyano-3-[4-(difluoromethoxy)phenyl]-N-(1,3-thiazol-2-yl)prop-2-enamide]",66.4174%
5,"N#CC(=Cc1ccc(-c2ccc(Cl)cc2)o1)C(=O)NC1CC1 [9-K16, 3-[5-(4-chlorophenyl)furan-2-yl]-2-cyano-N-cyclopropylprop-2-enamide]",84.3644%
6,"CC(Cl)C(=O)Nc1ccccc1C(=O)c1ccccc1 (stereo not shown) [6-G10, N-(2-benzoylphenyl)-2-chloropropanamide]",77.505%
7,"CS(=O)(=O)N1CCC(N(CC(F)F)C(=O)CCl)CC1 [5-O12, 2-chloro-N-(2,2-difluoroethyl)-N-(1-methanesulfonylpiperidin-4-yl)acetamide]",98.3503%
8,"C=CC(=O)N[C@H]1C[C@H](S(C)(=O)=O)C1 [3-D18, N-[(1r,3r)-3-methanesulfonylcyclobutyl]prop-2-enamide]",105.146%
9,"C=CC(=O)NCc1ccnc(N2CCN(c3ccc(F)cc3)CC2)c1 [1-M11, N-({2-[4-(4-fluorophenyl)piperazin-1-yl]pyridin-4-yl}methyl)prop-2-enamide]",80.7175%
10,"C=CC(=O)N(C)Cc1ccnn1CC [1-F07, N-[(1-ethyl-1H-pyrazol-5-yl)methyl]-N-methylprop-2-enamide]",93.2735%
11,"C=CC(=O)N1CCC(C(=O)OCC)(S(C)(=O)=O)CC1 [3-H04, ethyl 4-methanesulfonyl-1-(prop-2-enoyl)piperidine-4-carboxylate]",101.264%
12,"Cc1cc(S(=O)(=O)N(C)C)cc(NC(=O)CCl)c1C [4-H15, 2-chloro-N-[5-(dimethylsulfamoyl)-2,3-dimethylphenyl]acetamide]",102.825%
13,"CC(Cl)C(=O)Nc1ccc(Cl)cc1F (stereo not shown) [4-C14, 2-chloro-N-(4-chloro-2-fluorophenyl)propanamide]",93.1637%
14,"C=CC(=O)NC(Cn1cncn1)c1ccccc1 (stereo not shown) [3-F17, N-[1-phenyl-2-(1H-1,2,4-triazol-1-yl)ethyl]prop-2-enamide]",90.6782%
15,"C=CC(=O)NCC(O)c1ncccc1OC (stereo not shown) [2-J11, N-[2-hydroxy-2-(3-methoxypyridin-2-yl)ethyl]prop-2-enamide]",90.6591%
16,"C=CC(=O)N1CCC(NC(=O)Nc2ccccc2OC)CC1 [1-K13, 3-(2-methoxyphenyl)-1-[1-(prop-2-enoyl)piperidin-4-yl]urea]",84.1555%
17,"CC(=O)NC1Cc2ccccc2N(C(=O)CCl)C1 (stereo not shown) [5-M20, N-[1-(2-chloroacetyl)-1,2,3,4-tetrahydroquinolin-3-yl]acetamide]",100.368%
18,"COc1ccc(C=C(C#N)C(=O)Nc2ccc(Cl)c(Cl)c2)cc1 [8-C03, 2-cyano-N-(3,4-dichlorophenyl)-3-(4-methoxyphenyl)prop-2-enamide]",89.395%
19,"COc1ccc(C(=O)C(C)Cl)cc1 (stereo not shown) [10-H22, 2-chloro-1-(4-methoxyphenyl)propan-1-one]",106.916%
20,"O=C(CCl)N(CCCO)C1CCCc2ccccc21 (stereo not shown) [7-J14, 2-chloro-N-(3-hydroxypropyl)-N-(1,2,3,4-tetrahydronaphthalen-1-yl)acetamide]",77.1849%
21,"CC(Cl)C(=O)N1CCN(S(=O)(=O)c2ccccc2)CC1 (stereo not shown) [6-B12, 1-[4-(benzenesulfonyl)piperazin-1-yl]-2-chloropropan-1-one]",88.4254%
22,"COc1ccc(C2=NN(C(=O)CCl)C(c3cccc(F)c3)C2)cc1 (stereo not shown) [6-P04, 2-chloro-1-[5-(3-fluorophenyl)-3-(4-methoxyphenyl)-4,5-dihydro-1H-pyrazol-1-yl]ethan-1-one]",96.7675%
23,"Cc1cc(C)n(CC2CCN(C(=O)C(C)Cl)CC2)n1 (stereo not shown) [7-P17, 2-chloro-1-{4-[(3,5-dimethyl-1H-pyrazol-1-yl)methyl]piperidin-1-yl}propan-1-one]",90.2693%
